Laboratory results as given in publication PMC9357639 (Cancer Science, 2022).

Target: the molecule itself
Test: SEC

B1: STAT3 T622A, bacterially purified, phosphorylated at Y705 by His-JAK2 in vitro (with or without earl (natural protein)
chain: not shown
modifications: phosphotyrosine at 705 (JAK2-mediated, in vitro kinase assay)
binding result: binds
